This note sets out measurements from patent US20210030841A1 (KEROS THERAPEUTICS, published 2021).

What all share (experiment): SPR, Biacore 3000; receptor captured on chip, ligand in solution
For orientation: SPR reads the build-up and loss of mass on a sensor chip optically.

In test [1] the target is T1, BMP-9 (UniProt Q9UK05 320-429).
T1 construct: the embodiments speak of human BMP9; also called bone morphogenetic protein 9
T1 sequence (looked up): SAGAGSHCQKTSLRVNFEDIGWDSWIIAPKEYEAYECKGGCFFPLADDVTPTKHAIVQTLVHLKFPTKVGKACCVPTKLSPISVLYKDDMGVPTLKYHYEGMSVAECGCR
From the text: (§1) The Biacore 3000 was used to measure the kinetics of the interactions between the ActRIIa variants and the ligands Activin A, Activin B, growth differentiation factor 11 (GDF11), and BMP-9. ActRIIa variants were transiently expressed in HEK293 cells and purified from the conditioned media using Protein-A Sepharose chromatography. The ActRIIa variants were immobilized on the chip (CM4 or CM5) with capture antibodies ([…]) in flow cells 2-4 to ensure proper orientation. Flow cell 1 was used as a reference cell to subtract any nonspecific binding and bulk effects. HBS-EP+ buffer from GE Healthcare™ was used as a running buffer. Each ligand was run in a concentration series at 40 μl/min to avoid mass transport effects. The data was analyzed using Scrubber2 by BioLogic™ Software to calculate the KD of each interaction (Table 5).

Test [2] deals with T2, Activin B (UniProt P09529 293-407).
T2 construct: the embodiments speak of human activin B
T2 sequence (looked up): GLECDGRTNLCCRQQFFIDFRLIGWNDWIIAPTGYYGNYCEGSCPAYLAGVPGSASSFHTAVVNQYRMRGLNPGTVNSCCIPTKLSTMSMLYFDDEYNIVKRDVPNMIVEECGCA
Text: as §1

For test [3], the target named is T3, Activin A (UniProt P08476 311-426).
T3 construct: the embodiments speak of human activin A
T3 sequence (looked up): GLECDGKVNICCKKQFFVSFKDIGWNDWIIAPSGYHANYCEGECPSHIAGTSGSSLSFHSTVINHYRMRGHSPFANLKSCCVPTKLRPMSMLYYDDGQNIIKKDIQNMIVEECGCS
Text: as §1

The target of test [4] is T4, growth differentiation factor 11 (GDF11) (UniProt O95390 299-407).
T4 construct: the embodiments speak of human GDF-11
T4 sequence (looked up): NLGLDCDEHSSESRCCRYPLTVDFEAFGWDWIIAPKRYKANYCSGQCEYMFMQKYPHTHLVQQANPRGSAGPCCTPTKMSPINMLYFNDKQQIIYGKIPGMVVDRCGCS
Text: as §1

B1: ActRIIa (SEQ ID NO: 73), human ActRIIa, extracellular portion (receptor, not shown: a dimerising Fc or GST)
chain: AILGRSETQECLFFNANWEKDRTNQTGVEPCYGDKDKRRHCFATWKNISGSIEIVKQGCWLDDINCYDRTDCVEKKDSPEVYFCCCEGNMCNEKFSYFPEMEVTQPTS
notes: Expressed in HEK293, purified on Protein-A Sepharose, captured on the chip by anti-mouse antibodies; also called wild-type extracellular ActRIIa
The term Kd denotes the concentration at which binding is half-saturated. As for B1, the Kd came out at 25 nM in test [1], 0.373 nM in test [2], 1 nM in test [3] and 0.081 nM in test [4].
